# ± gives the standard deviation of the averaged measurements. Over roughly 33,000 sequences, “E-score (dimensionless, -0.5 to 0.5)” has its median near -0.049; the highest 2% begin near 0.37. The list shows a part of the results.
# Test system: T1, PmTbr T-box DNA-binding domain (GST fusion)
# T1 sequence: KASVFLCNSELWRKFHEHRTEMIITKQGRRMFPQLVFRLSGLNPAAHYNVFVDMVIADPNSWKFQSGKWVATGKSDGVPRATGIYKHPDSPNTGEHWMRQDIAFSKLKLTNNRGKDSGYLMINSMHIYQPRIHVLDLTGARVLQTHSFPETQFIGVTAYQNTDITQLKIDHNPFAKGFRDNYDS
# Experiment: PBM E-score of 8-mer (E-score (dimensionless, -0.5 to 0.5)); Tbr is Tbrain of the sea star Patiria miniata (Pm) or the sea urchin Strongylocentrotus purpuratus (Sp); higher = stronger binding preference; most listed sequences are background and not binding sites
# Conditions: the construct has about 5 more residues each side
# Method in brief: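 Universal Agilent oligonucleotide arrays, made double-stranded by primer extension, were incubated with 200 nM GST-fused Tbr T-box DNA-binding domain in PBS (pH 7.5). The protein was expressed in BL21 E. coli at 20 °C and purified by glutathione affinity chromatography. After scanning and quantification, the Universal PBM Analysis Suite assigned an enrichment E-score to each ungapped 8-mer, averaged over duplicate arrays.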
row,Sequence,PBM E-score of 8-mer
1,TTGAACAA,-0.127 ± 0.035
2,AAAGTGTA,0.147 ± 0.057
3,AGACCGTA,-0.193 ± 0.033
4,CCCGGCAG,-0.133 ± 0.039
5,CAAGGATC,-0.0471 ± 0.074
6,ACCTAACG,0.104 ± 0.094
7,ATCCGTGA,0.105 ± 0.0036
8,ATCTAAGG,-0.203 ± 0.014
9,GACCTCGA,-0.0343 ± 0.13
10,ACTAGATC,-0.298 ± 0.043
11,ATGCGTGG,-0.0469 ± 0.043
12,GTGTTCAA,0.0941 ± 0.022
13,GAGCCAGC,0.0467 ± 0.04
14,ACCGAGGT,0.145 ± 0.022
15,CGAATAAC,0.0403 ± 0.031
16,CCCCCGAC,0.0442 ± 0.00089
17,CCTCACCG,-0.127 ± 0.05
18,CTCTCTTA,-0.177 ± 0.066
19,CGAAGTTA,-0.0444 ± 0.043
20,AAAGCGGC,-0.193 ± 0.013
21,ACTTTAAA,-0.00914 ± 0.097
22,AGACGTGG,-0.0504 ± 0.053

row,Sequence,PBM E-score of 8-mer
1,AGTGCTCA,0.00751 ± 0.026
2,CGATTATA,0.00861 ± 0.057
3,CAAGCTCA,-0.0245 ± 0.044
4,AGCGGTGG,-0.224 ± 0.076
5,AAGTCCTC,-0.149 ± 0.0063
6,AATCCTGT,0.094 ± 0.033
7,GAATTCGA,-0.133 ± 0.029
8,CTTATGAC,0.0992 ± 0.038
9,AGCATGTA,0.0286 ± 0.013
10,GCTGAGAA,0.198 ± 0.012
11,CGTTATTC,-0.0468 ± 0.057
12,GGGGACCA,-0.291 ± 0.017
13,AGTGTTCC,0.0364 ± 0.038
14,CCATGCAC,-0.0379 ± 0.06
15,GGTATACC,-0.225 ± 0.068
16,CACCGAGC,-0.0641 ± 0.12
17,ACTTTTCC,-0.0603 ± 0.078
18,TGTTGCAA,0.15 ± 0.065
19,ATAGAGAG,-0.075 ± 0.049
20,TATGAGCA,-0.242 ± 0.04
21,CAATTCAC,0.237 ± 0.015
22,TGAGCACA,-0.0876 ± 0.029

row,Sequence,PBM E-score of 8-mer
1,ACGTACCT,-0.0816 ± 0.068
2,CCTCACGC,0.3174 ± 0.0025
3,CCCCGACA,0.189 ± 0.032
4,AATTCCGT,-0.202 ± 0.015
5,ACGCATGA,-0.111 ± 0.035
6,CGGTGCAA,0.0869 ± 0.0063
7,CTCACCAG,0.2021 ± 0.00023
8,ACCAAGTC,-0.00442 ± 0.087
9,TGCCGCAA,-0.0959 ± 0.067
10,TATGAGAA,-0.274 ± 0.048
11,AGGAACAT,-0.253 ± 0.0039
12,AGAAACTA,-0.00754 ± 0.026
13,CTCAGCTA,0.134 ± 0.039
14,GATCAATA,-0.0796 ± 0.11
15,CAAGTAGC,0.1943 ± 0.0011
16,ATAATTCG,0.045 ± 0.11
17,CGTCCACG,-0.132 ± 0.049
18,AGCTTTTA,0.000395 ± 0.032
19,CGGGCTAC,-0.342 ± 0.0098
20,CTAACTGA,-0.0795 ± 0.084
21,GCGACGCA,0.0984 ± 0.028
22,TGTACTAA,-0.054 ± 0.0082

row,Sequence,PBM E-score of 8-mer
1,ACCATGGA,-0.075 ± 0.0094
2,CGTGTCTA,0.0962 ± 0.0027
3,GCGTGGAC,0.0317 ± 0.021
4,ACGCGAAC,0.203 ± 0.043
5,GAAATACA,0.112 ± 0.013
6,GTGGTCAA,-0.0506 ± 0.018
7,CGAGATAC,-0.00869 ± 0.012
8,CTCTGGGA,-0.0144 ± 0.017
9,AGTCCACC,-0.255 ± 0.047
10,AGTGGGCA,-0.207 ± 0.015
11,AAGAAGAG,-0.271 ± 0.045
12,TTCTAGAA,0.0424 ± 0.095
13,ACAACTGG,0.165 ± 0.013
14,ACGGGTCC,-0.0144 ± 0.012
15,ATTACCAG,-0.194 ± 0.038
16,ACATCTCA,0.00973 ± 0.005
17,ATAAGACG,-0.0327 ± 0.018
18,ACCGCGCG,0.096 ± 0.0033
19,TATCCTGA,-0.124 ± 0.038
20,CGTGACTC,0.0879 ± 0.021
21,GATATCCA,0.0568 ± 0.0081
22,ATCAAAAA,-0.192 ± 0.023

row,Sequence,PBM E-score of 8-mer
1,CGTCACAC,0.433 ± 0.017
2,CCCTCCAC,-0.0702 ± 0.038
3,CAGCAGGG,-0.211 ± 0.11
4,AACATTAG,-0.0332 ± 0.0063
5,TACAAAAA,-0.21 ± 0.072
6,GCACAGGC,-0.0764 ± 0.0017
7,CAGACGGC,-0.201 ± 0.055
8,AGCAGGCG,0.1 ± 0.031
9,CGGGCCGC,-0.226 ± 0.025
10,GACGTTGA,-0.077 ± 0.015
11,CATTTACC,0.036 ± 0.032
12,CGTTTCAG,0.0162 ± 0.026
13,AGCATGAG,-0.117 ± 0.07
14,CACAGTCA,0.118 ± 0.033
15,ACGTACCC,-0.00781 ± 0.019
16,AATATGTG,0.239 ± 0.023
17,CGTCAAAG,0.196 ± 0.044
18,CCTTATAA,-0.082 ± 0.039
19,GTGTGGGA,0.343 ± 0.02
20,CATTCATC,-0.0785 ± 0.059
21,CGAAAACG,0.109 ± 0.14
22,TCAGCGGA,-0.256 ± 0.03
